Reference: the supplement of paper PMC3334620
Over roughly 33,000 sequences, “E-score (-0.5 to 0.5)” has its median near -0.016; the highest 2% begin near 0.32. The list shows a part of the results.

Target: T1, Stp1 (UniProt B3LFK1)
T1 sequence: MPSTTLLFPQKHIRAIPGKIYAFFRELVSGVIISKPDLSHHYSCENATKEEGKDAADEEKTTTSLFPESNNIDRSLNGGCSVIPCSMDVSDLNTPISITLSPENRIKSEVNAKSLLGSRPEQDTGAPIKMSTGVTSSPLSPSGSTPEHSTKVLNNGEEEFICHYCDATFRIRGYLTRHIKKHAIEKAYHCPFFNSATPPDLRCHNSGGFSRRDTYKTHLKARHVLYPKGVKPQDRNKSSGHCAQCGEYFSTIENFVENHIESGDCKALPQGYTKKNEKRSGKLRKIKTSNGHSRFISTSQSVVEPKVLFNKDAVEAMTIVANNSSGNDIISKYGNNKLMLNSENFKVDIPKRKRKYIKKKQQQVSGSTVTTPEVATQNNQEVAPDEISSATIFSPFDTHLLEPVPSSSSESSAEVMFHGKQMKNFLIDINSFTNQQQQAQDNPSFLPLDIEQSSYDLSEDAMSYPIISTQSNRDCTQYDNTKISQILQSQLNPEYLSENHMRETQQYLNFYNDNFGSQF
Assay: PBM E-score (8-mer binding enrichment) (E-score (-0.5 to 0.5)); higher = stronger / more preferred TF binding; most listed sequences are background and not binding sites
Details: protein concentration: 200 nM; construct: GST-full length
Outline: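 Bound GST-tagged yeast transcription factors, applied at about 100-200 nM to double-stranded universal all-10-mer Agilent arrays, were detected with fluorescent anti-GST. Scans were normalised with masliner. A modified Wilcoxon-Mann-Whitney statistic, the E-score, was assigned to each ungapped eight-base word pooled with its reverse complement by the Universal PBM Analysis Suite.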

Sequence	PBM E-score
CTCTACGA	-0.0271
CCACGCTA	-0.211
CAGTGTCA	0.0177
ACGGATAA	0.193
CCACTTCC	-0.0391
ATCAAGAC	-0.0747
AGTTTGAC	0.0772
CGCAGAAC	0.217
CTGCTGCA	-0.169
CATTTCGG	-0.097
GACCCATC	-0.264
GAAACACA	0.226
CGCGGAAA	0.0786
CAGCGACA	-0.172
CCATCCTC	-0.143
TCCTCGCA	-0.00324
CAAAGATG	-0.0241
AACTTTGA	0.232
AGGAAAGA	-0.108
ACCCGTCG	-0.0617
AGCACTCG	-0.175
CGCATCTC	0.101

Sequence	PBM E-score
AGTCCTGG	-0.184
ATTAACGA	0.179
CGACAACG	0.185
AACTGCGG	0.173
CCGCCGAG	0.083
ATCTTACG	0.147
AAGTTTGG	0.189
AATAGAGG	-0.00072
ACCGCAAA	0.0936
AATTCTTA	-0.0838
CCCGGGAA	-0.209
ATTCGGGA	-0.0187
CCATCGTA	0.0579
AGTTTATC	0.249
CTTTGCCA	0.058
ATTGCGGC	0.283
CTGGAGGC	-0.0215
ATTATCTG	0.0535
GACAGACA	0.128
AACATGTC	0.0331
ACACGTCC	-0.21
CCGTCCGA	0.0655

Sequence	PBM E-score
CCAGTGGG	-0.202
ATAGAGTC	-0.143
ACCTTTGC	-0.133
GGTACTTA	-0.02
AGGTTAAC	0.00379
CATTGACG	0.0728
CCGTAGCA	0.228
GAACGAAA	-0.0367
CAGTAGCC	0.0177
AAATCGCT	-0.236
AGAGTATG	-0.303
CGATACAG	0.0202
CCAATTTC	0.0741
AAGATCGC	-0.0651
CCGGGAAG	-0.14
GGAAATCA	-0.0344
CCCCAAAG	-0.106
AGGTGCAA	-0.052
GTCGAGAA	0.0529
ATGGACAG	-0.0793
ATATCTCC	0.00413
GTGAAGAA	0.16

Sequence	PBM E-score
AGGGCGGG	-0.054
AGACCAAT	-0.0691
TACTTGAA	0.0539
GCAGTACA	0.0135
CTACCAAG	-0.0321
AAGGCCAG	-0.13
AGCGTACT	-0.119
ATATGTTG	0.129
CAACGAAG	-0.0658
GAAGGGGC	-0.189
TGAGAACA	0.166
CATCTTGG	-0.137
CATCGGCA	0.0516
AGTGATAT	-0.0944
CGAAGTAC	-0.0662
ACACACAC	0.0566
CGAGAATA	0.08
GGATTACA	-0.214
ATTAAAAG	0.161
ATAAAGAC	-0.124
